Data on 43 compounds can be found in ChEMBL document CHEMBL4888484, “Replenishing the malaria drug discovery pipeline: Screening and hit evaluation of the MMV Hit Generation Library 1 (HGL1) against asexual blood stage Plasmodium falciparum ,using a nano luciferase reporter read-out” (2022).

The campaign covered roughly 150,000 compounds. About 540 (0.36%) showed an effect of 50% or more. Some of the results follow.

The experiment has as its system Plasmodium falciparum. The experiment can be described thus: Primary screen in NF54 nanoGlo assay, in single point, at 2uM, 72h; a lower Z score goes with more inhibition. The format is functional, Erythrocyte. The conditions noted are these: timepoint 72 hour.
Regarding `CC(C)(C#CCN1CCCCC1)OCCOC(c1ccccc1)c1ccccc1`, the “% Inhibition” value is reported as -15% and the Z score is given as 1.35.
For `FC(F)(F)C1CCN(Cc2cccs2)CC1` the same measures were -6% and 1.09.
For `CC(C)c1nc(CNc2nnc([C@@H]3Cc4ccccc4O3)o2)cs1` the same measures were -11% and 1.19.
`O=C(Nc1cc[nH]n1)Nc1ccncc1F`: the “% Inhibition” value was -7% and the Z score is 1.08.
The like results for `COc1cc(C)cc(OC)c1-c1ccc(-n2cnnc2)nc1` were, in that order, 3% and -0.5.
The like results for `CCn1ccc(NC(=O)N[C@@H]2CCC[C@@H]2Oc2cnn(C)c2)n1` were, in that order, -5% and 0.57.
Consider `CCc1noc(CC)c1CNC(=O)N1CCC[C@H]1C(F)F`, for which the “% Inhibition” value is 5% and the Z score is listed as -0.74.
For the compound `O=C(CCc1ccsc1)NCCc1ccccc1`, the “% Inhibition” value is reported as -4% and the Z score was 0.77.
For `CC(C)(C)c1ccc2c(c1)N(S(=O)(=O)c1ccccc1)C[C@@H](C(=O)NCc1ccco1)O2` the same measures were -16% and 2.88.
The like results for `CCc1nn2c(c1-c1ccc(OC)c(S(=O)(=O)Nc3ccc(C)cc3C)c1)NC(=O)CCC2=O` were, in that order, 5% and -0.62.
For `c1sc(CC2CC2)nc1C1CCOCC1` the same measures were -2% and 0.25.
As to `COc1cc(NC(=O)NC2CCCC(OC(=O)Nc3ccccc3)C2)cc(OC)c1` (stereo unspecified), the “% Inhibition” value was -6% and the Z score is 1.1.
The like results for `Nc1c(-c2ccccn2)nsc1C(=O)NCc1cc(F)cc(F)c1` were, in that order, -10% and 1.63.
For `O=C(CN1CCC[C@H](O)C1)NCc1ccco1` the same measures were -14% and 1.39.
On to `O=C(CCN1CCOCC1)Nc1ccc2c(c1)OCO2`, for which the “% Inhibition” value is -13% and the Z score amounted to 2.45.
For `COc1ccccc1C(=O)N1CCN(c2ccccc2OC)C(=O)[C@@H]1C` the same measures were 1% and -0.09.
The like results for `Cc1nc2c(c(N3CCC(C(=O)NC4CCCC4)CC3)n1)CCOCC2` were, in that order, -3% and 0.27.
The like results for `CCCc1cc(C(=O)N[C@@H](C)C(=O)Nc2ccc(C)cc2F)ccn1` were, in that order, -5% and 0.93.
Take `COc1cccc(S(=O)(=O)N2CC[C@@]3(CCC(=O)N3Cc3ccncc3)C2)c1`: the “% Inhibition” value amounted to 4% and the Z score is listed as -0.54.
For `Cc1ccc(-c2noc(-c3ccccc3S(=O)(=O)N3CCN(c4ccc(Cl)cc4)CC3)n2)cc1` the same measures were -9% and 1.06.
The like results for `CN1CCN(c2nc(-c3ccccc3)no2)CC1=O` were, in that order, 1% and -0.21.
On to `O=S1(=O)C[C@H](NC2CCCCC2)[C@@H](S(=O)(=O)c2ccccc2)C1`, for which the “% Inhibition” value amounted to 1% and the Z score is given as -0.08.
Consider `Cc1ccc2c(C(=O)NS(=O)(=O)[C@H]3CCOC3)csc2c1`, for which the “% Inhibition” value is recorded as -4% and the Z score is recorded as 0.84.
The like results for `C[C@@H]1CN(c2cc(N3CCOCC3)ncn2)CC[C@]1(C)O` were, in that order, -7% and 0.92.
`O=C1N(CC2CCC2)CCC[C@@]12CCN(Cc1cc(C3CC3)on1)C2`: the “% Inhibition” value is listed as -16% and the Z score was determined as 1.7.
For `COC[C@](C)(CCO)NC(=O)c1ccccn1`, the “% Inhibition” value is -11% and the Z score is reported as 1.58.
For `O=C1NCCN([C@H]2CCCN(Cc3ccccc3)C2)C1=O` the same measures were -12% and 1.59.
The like results for `O=C(NC1CCCC1)c1ccc2c(c1)nc1n2CCCC1` were, in that order, 0% and -0.06.
As for `COc1cccc(-c2cc(C(=O)N3CC[C@H](Oc4ccc5ccccc5n4)C3)n(C)n2)c1`, the “% Inhibition” value is on record as -5% and the Z score is given as 0.87.
`CC(=O)Nc1nc(CC(=O)NC2CCCCCC2)cs1`: the “% Inhibition” value is recorded as 8% and the Z score is given as -0.9.
For `COc1ccc(C(=O)N2CCC3(CC2)C[C@@H](Oc2ncccn2)CCO3)cn1` the same measures were -4% and 0.84.
For `COc1ccc(N2CCN(C(=O)c3snc(-c4ccc(C)cc4)c3N)CC2)cc1` the same measures were -14% and 1.64.
For `Cc1noc(C)c1CCc1nc([C@H]2CCOC2)nn1-c1ccncc1`, the “% Inhibition” value was -5% and the Z score turned out to be 0.51.
The like results for `O=C(c1cc2cc(C3(O)CCNCC3)ccc2o1)N1CCc2ccccc2C1` were, in that order, -9% and 1.74.
In the case of `CC(=O)c1ccc(N2CCN(C(=O)[C@H](C)NC(=O)c3ccco3)CC2)cc1`, the “% Inhibition” value is reported as -2% and the Z score was found to be 0.17.
In the case of `Cc1cnc(C(=O)N2CCCC[C@H]2C(=O)Nc2cccc(-c3nnc(C)s3)c2)cn1`, the “% Inhibition” value is listed as -6% and the Z score is listed as 0.71.
The like results for `CS(=O)(=O)N(CCCN1CCOCC1)[C@H]1CCN(Cc2cccc(Cl)c2)C1` were, in that order, 2% and -0.41.
For the compound `COCC(=O)NC1CCC(NC(=O)c2csc(COc3cc(C)ccc3C(C)C)n2)CC1` (stereo unspecified), the “% Inhibition” value was determined as 33% and the Z score is recorded as -0.65.
As to `Cc1ccc(CNCc2cc3c(cc2OC(F)F)OCO3)nc1`, the “% Inhibition” value was found to be 7% and the Z score is listed as -0.95.
For `CC(=O)Nc1nc(CN2CCN3CCOc4cccc2c43)cs1` the same measures were -2% and 0.21.
The like results for `CC[C@H](NC(=O)CCc1nncn1C)c1cc(C)ccn1` were, in that order, -6% and 0.93.
For `CNC(=O)NC(=O)[C@H](C)Nc1cc(C)c(Cl)cc1OC` the same measures were 13% and -1.79.
With `CCn1ncnc1CNC(=O)N1CCC[C@](C)(O)C1`, the “% Inhibition” value is given as -2% and the Z score turned out to be 0.31.

By % Inhibition is commonly meant the drop in the measured response relative to a control, in per cent.
